Source: PubChem BioAssay (NCATS)
Several values for one entry are separate records, joined by “and”; a condition that tells them apart may be missing. Equal values may be shown once. The inconclusive results got no clear call from the source; some entries with a clear call stand among them for comparison. For some assays here: Potencies beside an inconclusive call are fits to weak or partial responses and may not hold up. Activity calls are given as the source filed them. Unless noted, the call rests on the fitted dose curve; in most records, active means well fitted curve in the direction sought with a large enough effect; inconclusive means small, poorly fitted or top-dose-only effect, or another doubt; inactive means no such curve, though single readings can be large; an effect the other way counts as inactive or inconclusive.

How the values were obtained:
[1] = target: 3',5'-cyclic-AMP phosphodiesterase 4B (Homo sapiens) (UniProt Q07343); assay: qHTS Assay for Inhibitors of PDE-IV (AID 607; active means well fitted activation curve with a large enough effect in the main read-out, with a control signal flat, not every such curve was filed as active; inconclusive means small, poorly fitted or top-dose-only effect, or effect the other way, or a change in a side signal; on activation (PDE inhibition): % of control where 0% means no effect); conditions: HEK293 ACTOne CNG channel cells, membrane potential fluorescence; activation (PDE inhibition): at 22.9 µM (top of the series)
Summary of the method: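 HEK293 ACTOne cells with CNG channel (1000/well), endogenous PDE4; membrane potential dye, compounds up to 22.9 uM final. Fluorescence Ex 535/Em 590; RO 20-1724 (100 uM final) as reference.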

[2] = qHTS Assay for Identification of Small Molecule Agonists for Hypoxia Response Element Signaling Pathway (AID 914; active means well fitted activation curve with a large enough effect in the signal ratio, with a control signal flat, not every such curve was filed as active; inconclusive means small, poorly fitted or top-dose-only effect, or effect the other way, or a change in a side signal; the % refers to the signal ratio; on activation: top concentration of the series differs between compounds; % of control where 0% means no effect); conditions: ME-180 HRE-bla reporter, beta-lactamase ratio, CoCl2, 17 h; activation: active compounds read high
Summary of the method: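 Positive modulation of EC50 CoCl2-induced hypoxia response element signaling is measured in ME-180 cells with a beta-lactamase reporter. Compounds are titrated, incubation runs 17 hours, and %Activity derives from the blue/green ratio.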

[3] = target: Cytochrome P450 2D6 (Homo sapiens) (UniProt P10635); assay: qHTS Assay for Inhibitors and Substrates of Cytochrome P450 2D6 (AID 891);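 further: luciferin methyl ether substrate demethylated by CYP2D6 with NADPH regeneration; nearly all actives have a fitted effect of over 60% in size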; on activity change, negative = inhibition: top concentration of the series differs between compounds; on the % scale 0 is the no-effect control and ±100 the full control effect
Summary of the method: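 Human CYP2D6 (5 nM) with 30 uM Luciferin-ME EGE (at Km) in 100 mM KPO4, compound preincubated 10 min, then NADPH regeneration system for 60 min at room temperature. Luciferin read by luminescence; normalized to 1.43 uM quinidine.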

[4] = target: Cytochrome P450 2C19 (Homo sapiens) (UniProt P33261); assay: qHTS Assay for Inhibitors and Substrates of Cytochrome P450 2C19 (AID 899); conditions: recombinant CYP2C19, luciferin-H EGE luminescence; activity, negative = inhibition: at 11.4 µM (top of the series); further: nearly all actives have a fitted effect of over 60% in size; on activity, negative = inhibition: top concentration of the series differs between compounds; on the % scale 0 is the no-effect control and ±100 the full control effect
Summary of the method: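 Signal comes from luciferase acting on luciferin released by CYP2C19-mediated hydroxylation of Luciferin-H EGE, 10uM (KM). Assay mix: 5nM enzyme, 50mM KPO4; 60 min at 37C with NADPH regeneration. Data normalized against 57uM ketoconazole.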

[5] = qHTS Assay for Identification of Small Molecule Antagonists for NFkB Signaling Pathway (AID 895; active means well fitted inhibition curve with a large enough effect in the signal ratio, with a control signal flat, not every such curve was filed as active; inconclusive means small, poorly fitted or top-dose-only effect, or effect the other way, or a change in a side signal; the % refers to the signal ratio; on activity change, negative = inhibition: on the % scale 0 is the no-effect control and ±100 the full control effect); conditions: NFkB beta-lactamase reporter cells, FRET ratio 460/530, stimulated with 10 pM TNF alpha; activity change, negative = inhibition: at 38.3 µM (top of the series)
Summary of the method: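 ME-180 NFkB-bla cells (beta-lactamase under NFkB response element), plated overnight, treated with compound then 10 pM TNF alpha (about EC50) for 5 hrs at 37 C. LiveBLAzer FRET read at 460/530 nm emission, 405 nm excitation.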

[6] = qHTS Assay for Identification of Small Molecule Antagonists for Thrombopoietin (TPO) Signaling Pathway (AID 918); conditions: TPO-dependent cell signaling reporter, antagonist mode; activity change, negative = inhibition: at 38.5 µM (top of the series); further: nearly all actives have a fitted effect of over 60% in size
Summary of the method: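 Ba/F3 (murine, hTPO-R, GPIIb-luc reporter); overnight IL-3 withdrawal; cpd + TPO 26 pM final (EC50); 24 h 37 C/5% CO2; Steadylite luminescence after 10 min RT.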

[7] = qHTS Assay for Identification of Small Molecule Agonists for Thrombopoietin (TPO) Signaling Pathway (AID 917)
Summary of the method: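 Murine Ba/F3 cells stably expressing human TPO receptor and a Glycoprotein IIb promoter–luciferase reporter were IL-3-starved overnight, then treated with compounds plus TPO (26 pM final, its EC50) for 24 hrs at 37 C; luminescence was read.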

[8] = target: Muscarinic acetylcholine receptor M1 (Rattus norvegicus) (UniProt P08482); assay: qHTS Assay for Antagonists of Acetylcholine Muscarinic M1 Receptor: Measurement of IP-One Response (AID 944); further: nearly all actives have a fitted effect of over 75% in size
[9] = target: Muscarinic acetylcholine receptor M1 (Rattus norvegicus) (UniProt P08482); assay: qHTS Assay for Antagonists of Acetylcholine Muscarinic M1 Receptor: Kinetic Measurement of Intracellular Calcium Response (AID 943); further: nearly all actives have a fitted effect of over 75% in size
Summary of the method: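 Rat M1-CHO cells, 2000/well, overnight → Fluo-4 no-wash dye with probenecid, 1 h 37C → compound 10 min, room temp → basal read 6 s → carbachol EC80 (100 nM) → 4 min kinetic read; peak/basal.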
Potency means the concentration at half of the fitted maximal effect; tags describe the fitted curve by direction and shape or compound fluorescence and quenching.

Sequence of UniProt P10635 (P10635 whole entry, looked up): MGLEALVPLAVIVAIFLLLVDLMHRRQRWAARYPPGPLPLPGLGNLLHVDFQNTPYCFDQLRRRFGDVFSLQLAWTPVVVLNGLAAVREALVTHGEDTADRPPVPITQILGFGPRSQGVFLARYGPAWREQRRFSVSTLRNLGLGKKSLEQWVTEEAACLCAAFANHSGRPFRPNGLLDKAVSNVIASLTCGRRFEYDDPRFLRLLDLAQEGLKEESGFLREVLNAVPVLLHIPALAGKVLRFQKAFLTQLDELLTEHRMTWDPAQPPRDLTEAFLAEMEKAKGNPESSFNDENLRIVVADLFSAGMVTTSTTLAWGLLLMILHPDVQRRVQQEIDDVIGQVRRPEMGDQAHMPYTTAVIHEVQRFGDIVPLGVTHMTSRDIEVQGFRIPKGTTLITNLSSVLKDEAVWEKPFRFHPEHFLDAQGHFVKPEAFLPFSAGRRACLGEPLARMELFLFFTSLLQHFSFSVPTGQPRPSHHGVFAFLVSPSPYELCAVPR
Sequence of UniProt Q07343 (Q07343 whole entry, looked up): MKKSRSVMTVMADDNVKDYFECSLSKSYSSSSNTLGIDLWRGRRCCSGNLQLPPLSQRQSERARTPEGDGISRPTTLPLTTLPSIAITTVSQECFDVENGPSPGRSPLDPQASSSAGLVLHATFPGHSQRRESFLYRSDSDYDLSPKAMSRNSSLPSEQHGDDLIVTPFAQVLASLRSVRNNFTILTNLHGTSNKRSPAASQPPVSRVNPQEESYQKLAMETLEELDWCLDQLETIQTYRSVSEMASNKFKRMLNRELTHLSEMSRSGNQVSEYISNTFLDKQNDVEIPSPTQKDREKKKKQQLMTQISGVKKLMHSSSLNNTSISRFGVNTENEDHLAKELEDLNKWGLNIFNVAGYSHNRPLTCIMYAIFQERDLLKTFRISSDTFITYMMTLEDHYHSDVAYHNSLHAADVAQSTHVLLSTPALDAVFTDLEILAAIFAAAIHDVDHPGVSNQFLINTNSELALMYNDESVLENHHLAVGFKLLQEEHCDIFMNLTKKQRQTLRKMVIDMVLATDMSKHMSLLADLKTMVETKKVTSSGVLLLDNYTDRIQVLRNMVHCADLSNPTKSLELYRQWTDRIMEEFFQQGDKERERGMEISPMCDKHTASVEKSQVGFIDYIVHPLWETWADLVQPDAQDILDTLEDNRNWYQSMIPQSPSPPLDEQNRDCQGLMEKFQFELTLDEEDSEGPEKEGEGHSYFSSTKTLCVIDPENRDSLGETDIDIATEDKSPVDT
Sequence of UniProt P33261 (P33261 whole entry, looked up): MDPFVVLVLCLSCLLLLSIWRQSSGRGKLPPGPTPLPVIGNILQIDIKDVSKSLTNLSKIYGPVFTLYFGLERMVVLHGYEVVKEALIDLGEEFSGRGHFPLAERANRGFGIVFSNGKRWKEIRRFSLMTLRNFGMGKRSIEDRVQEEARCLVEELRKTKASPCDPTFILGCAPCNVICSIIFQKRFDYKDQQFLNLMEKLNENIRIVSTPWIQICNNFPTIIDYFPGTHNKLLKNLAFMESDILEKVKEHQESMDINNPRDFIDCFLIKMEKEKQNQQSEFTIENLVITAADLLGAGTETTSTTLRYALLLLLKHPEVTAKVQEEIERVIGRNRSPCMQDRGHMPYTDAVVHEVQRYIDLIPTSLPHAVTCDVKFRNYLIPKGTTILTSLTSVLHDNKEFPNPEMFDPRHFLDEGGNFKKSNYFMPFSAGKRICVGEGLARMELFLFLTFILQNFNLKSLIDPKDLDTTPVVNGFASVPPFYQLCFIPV
Sequence of UniProt P08482 (P08482 whole entry, looked up): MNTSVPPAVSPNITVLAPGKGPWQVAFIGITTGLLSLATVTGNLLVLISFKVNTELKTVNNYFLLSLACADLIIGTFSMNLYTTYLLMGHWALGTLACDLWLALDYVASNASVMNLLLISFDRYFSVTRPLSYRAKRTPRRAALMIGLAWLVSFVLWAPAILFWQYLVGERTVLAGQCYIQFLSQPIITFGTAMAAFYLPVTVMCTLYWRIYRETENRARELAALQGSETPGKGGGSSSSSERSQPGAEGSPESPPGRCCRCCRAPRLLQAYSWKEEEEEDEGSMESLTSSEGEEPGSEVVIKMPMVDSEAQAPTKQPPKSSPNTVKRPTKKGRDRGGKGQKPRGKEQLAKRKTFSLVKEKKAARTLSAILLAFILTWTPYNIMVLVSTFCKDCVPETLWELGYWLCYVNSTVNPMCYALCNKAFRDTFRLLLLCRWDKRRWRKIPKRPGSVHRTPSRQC

**Q.** For `FC(F)(F)c1nc(SCc2ccc(Cl)cc2)n[nH]1`, which Potency [1] is on record?
**A.** Its Potency is “inactive”.

**Q.** What about the activation [2] of the same molecule?
**A.** The activation was inactive: 8.01%.

**Q.** Which Potency [1] does the source give for `CCNc1ncc2nc(CCc3ccccc3)c(=O)n(C[C@H]3CCCO3)c2n1` here?
**A.** Its Potency is inconclusive: 10 µM [activator, partial curve].

**Q.** What about the Potency [2] of the same molecule?
**A.** The Potency was inconclusive: 1.58 µM [inhibitor, partial curve].

**Q.** Which Potency [1] does the source give for `c1ccc(CCCNc2nnnc3ccccc23)cc1` here?
**A.** Its Potency is “inactive”.

**Q.** What about the Potency [3] of the same molecule?
**A.** The Potency was inconclusive: 3.98 µM [inhibitor, partial curve].

**Q.** What about the Potency [4] of the same molecule?
**A.** The Potency was inconclusive: 3.16 µM [inhibitor, single point].

**Q.** What does the source list for `Nc1ncnc2c1ncn2[C@@H]1O[C@@H](C(=O)NC2CC2)[C@H](O)[C@@H]1O`?
**A.** Potency [1]: inconclusive: 1.58 µM [rising, full curve]; activity change, negative = inhibition [5]: inconclusive: -20.7%; activity change, negative = inhibition [6]: inconclusive: -20.8% [phenotype inactive]

**Q.** What does the source list for `CCCC[C@H]1C[C@@H]1[C@@H]1N(P(=O)(c2ccccc2)c2ccccc2)[C@](CO)(c2ccccc2)CC12CC2`?
**A.** Potency [1]: inconclusive: 6.31 µM [activator, partial curve]; Potency [4]: inconclusive: 7.94 µM [inhibitor, full curve, poor fit]

**Q.** With `O=C(CCN1CCCCC1)N1CCc2c([nH]c3ccccc23)[C@H]1c1cccnc1` as the molecule, how does the Potency [1] read?
**A.** The Potency was “inactive”.

**Q.** What about the Potency [3] of the same molecule?
**A.** The Potency was inconclusive: 3.16 µM [inhibitor, partial curve].

**Q.** Which Potency [1] does the source give for `C[C@](N)(C(=O)O)c1ccc(-c2nn[nH]n2)cc1` here?
**A.** Its Potency is inconclusive: 19 µM [inhibitor, single point].

**Q.** And the Potency [4]?
**A.** Its Potency is inconclusive: 7.94 µM [inhibitor, full curve].

**Q.** Which results are given for `CC(C)(C)[C@@]1(O)CCN2C[C@@H]3c4ccccc4CCc4cccc(c43)[C@@H]2C1`?
**A.** Potency [1]: inconclusive: 12.6 µM [activator, partial curve, poor fit]; Potency [3]: active: 79.4 nM and active: 501 nM; Potency [5]: inconclusive: 10 µM [inhibitor, single point] and inconclusive: 7.9 nM [activator, full curve, poor fit]; Potency [7]: inconclusive: 12.6 µM [inhibitor, partial curve] and inconclusive: 10 µM [inhibitor, partial curve]; Potency [6]: active: 12.6 µM; Potency [8]: inconclusive: 17.8 µM [inhibitor, partial curve, poor fit]

**Q.** Which Potency [1] does the source give for `CSC(N)=NCCC[C@@H](N)C(=O)O` here?
**A.** The Potency was “inactive”.

**Q.** And the activity change, negative = inhibition [5]?
**A.** Its activity change, negative = inhibition is inconclusive: -45%.

**Q.** What about the Potency [7] of the same molecule?
**A.** Its Potency is inconclusive: 3.16 µM [inhibitor, partial curve].

**Q.** And the Potency [6]?
**A.** The Potency was active: 3.16 µM.

**Q.** What about the Potency [9] of the same molecule?
**A.** Its Potency is inconclusive: 0.141 µM [inhibitor, full curve, poor fit].

**Q.** For `COC(=O)[C@@]1(Cc2ccccc2)[C@H]2c3cc(C(=O)N4CCCC4)n(CCO)c3C[C@H]2CN1C(=O)c1ccccc1`, which Potency [1] is on record?
**A.** The Potency was inconclusive: 6.31 µM [activator, partial curve, poor fit].

**Q.** What about the Potency [4] of the same molecule?
**A.** Its Potency is inconclusive: 0.0079 µM [inhibitor, full curve, poor fit].

**Q.** With `CC1(C)CC[C@]2(C(=O)O)CC[C@]3(C)C(=CC[C@@H]4[C@@]5(C)CC[C@H](O)C(C)(C)[C@@H]5CC[C@@]43C)[C@@H]2C1` as the molecule, how does the Potency [1] read?
**A.** Its Potency is inconclusive: 19 µM [inhibitor, single point].

**Q.** What about the Potency [3] of the same molecule?
**A.** Its Potency is “inactive”.

**Q.** For `CC(C)C[C@@H](CC(=O)N[C@@H](CCC(=O)O)CC(=O)O)NC(=O)[C@@H]1CNCC[C@H]1NC(=O)C[C@@H](NC(=O)C[C@H](Cc1ccccc1)NC(=O)[C@@H]1CNCC[C@H]1N)C(C)C`, which Potency [1] is on record?
**A.** The Potency was inconclusive: 15.8 µM [activator, single point].

**Q.** And the Potency [4]?
**A.** Its Potency is “inactive”.

**Q.** With `O=C(c1cccc(F)c1)N1CCC2(CCCN(c3ncccn3)C2)CC1` as the molecule, how does the Potency [1] read?
**A.** The Potency was inconclusive: 12.6 µM [activator, single point].

**Q.** And the Potency [4]?
**A.** The Potency was active: 6.31 µM.

**Q.** What about the Potency [2] of the same molecule?
**A.** Its Potency is inconclusive: 1 µM [activator, single point].

**Q.** For `CC(C)C[C@@H](CC(=O)N[C@@H](CCC(=O)O)CC(=O)O)NC(=O)[C@@H]1CCCC[C@H]1NC(=O)C[C@H](CCCN)NC(=O)C[C@H](Cc1c[nH]c2ccccc12)NC(=O)[C@@H]1CNCC[C@H]1N`, which Potency [1] is on record?
**A.** Its Potency is inconclusive: 6.31 µM [activator, partial curve, poor fit].

**Q.** What about the Potency [3] of the same molecule?
**A.** Its Potency is “inactive”.

**Q.** Which Potency [1] does the source give for `O=C(C[C@@H](C(=O)O)N1CCOCC1)c1ccccc1` here?
**A.** The Potency was “inactive”.

**Q.** What about the activation [2] of the same molecule?
**A.** Its activation is inactive: 16%.

**Q.** Which Potency [1] does the source give for `CCCC[C@@H]1C[C@H]1C(NC(=O)c1cccs1)c1ccccc1C(F)(F)F` (stereo not given in full) here?
**A.** Its Potency is inconclusive: 2.51 µM [activator, partial curve].

**Q.** And the Potency [4]?
**A.** The Potency was active: 0.631 µM.

**Q.** Which Potency [1] does the source give for `Clc1ccc(-c2noc(CN3CCCCC3)n2)cc1` here?
**A.** Its Potency is “inactive”.

**Q.** What about the Potency [3] of the same molecule?
**A.** The Potency was inconclusive: 3.16 µM [inhibitor, single point].

**Q.** Which results are given for `C=C(CC1([C@@H](NP(=O)(c2ccccc2)c2ccccc2)[C@H]2C[C@@H]2CCCC)CC1)c1ccccc1`?
**A.** Potency [1]: inactive; Potency [4]: inconclusive: 7.94 µM [inhibitor, full curve]

**Q.** Which Potency [1] does the source give for `CC(C)(C)C(=O)NC(c1ccc(Cl)cc1)[C@]1(C)C[C@H]1C1CCCCC1` (stereo not given in full) here?
**A.** The Potency was inconclusive: 2.51 µM [rising, partial curve].

**Q.** What about the Potency [4] of the same molecule?
**A.** Its Potency is inconclusive: 7.94 µM [inhibitor, partial curve, poor fit].

**Q.** With `CCOC(=S)SCC(=O)O` as the molecule, how does the Potency [1] read?
**A.** The Potency was “inactive”.

**Q.** And the activation [2]?
**A.** Its activation is inconclusive: 0.261%.
